# Measured values taken from the supplement of paper PMC11417369.
# ± gives the standard deviation of the averaged measurements. The list shows a part of the results.
# Tested on: PfAP2-G AP2 domain (GST-tagged)
# Test: gcPBM binding intensity (ln(normalized median fluorescence intensity)); higher = stronger DNA binding
# Method in brief: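 The binding buffer was 1× PBS containing 1% milk, 0.2 mg/ml BSA, 0.5% salmon testes DNA and 0.03% Triton X-100. In it, GST-tagged P. falciparum DNA-binding domains expressed in E. coli were applied for 1 h to an Agilent 4 × 180k array of primer-extended double-stranded 36-bp intergenic genomic probes plus negative controls. Binding intensity, read with Alexa488 anti-GST antibody and a 488 nm scan, is the highest Masliner-normalised natural-log median intensity across replicate spots of either probe orientation.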
row,Sequence,gcPBM binding intensity (ln)
1,TATTTATTTATTTAGTGTACATTTATATTTGTTCAT [XGTACX_site7575],11.4 ± 0.74
2,TAATCATAAAAAAATACACACATATATAATATATAT [CACACA_site1983],9.82 ± 0.17
3,AATATAAATAAAAAATTGATTTCTTTAAAAAGGTAT [CACACA_negctrl_site1038],9.67 ± 0.18
4,TACAAATGAGAAATATGTACATAAAAAAAAAAAAAT [XGTACX_site801],11.4 ± 0.81
5,TTGTTCTTTCAAATTATACACACCAAAAAAAAAAAA [CACACA_site3070],10.1 ± 0.42
6,ATACAAAATCTAATTTGTACACAATGTTTGATTTTT [XGTACX_site5438],11.1 ± 0.75
7,TAAATATATATAACATGTACATAAAATATATATATA [XGTACX_site4431],11.2 ± 0.68
8,TTTTTTCTTTTTTTTTTTAATTATAAACATGATATT [GTGCAC_negctrl_site144],9.75 ± 0.057
9,TATCTTCATTGTTGACGTACAGTATTTCTAAACGTT [XGTACX_site3439],11.5 ± 0.72
10,ATAATTAAAAATAATATATATATAATATGATATTAT [GTGCAC_negctrl_site194],9.43 ± 0.16
11,CCACTTGTGTAATGTTGTACAAAAATAAATATATTT [XGTACX_site4598],11.2 ± 0.57
12,CTATGAACACACACATGTACATATATTAACTCGCTA [XGTACX_site8805],11.1 ± 0.52
13,AAAAAAAAAAAAAACACACACACACGCACATATACA [CACACA_site7288],10.4 ± 0.23
14,TACACATACAGACATACACACATACACATATACACA [CACACA_site6918],10.2 ± 0.23
15,TTGCTTTCTTTTTTTTGTACTCATATCTACTATCAT [XGTACX_site7711],11.3 ± 0.62
16,CATAAAAATGAACATACACACATATATATATATATA [CACACA_site2498],10.1 ± 0.24
17,TACCTTTATTAATAAAGTACATTAATCTGTGTATAC [XGTACX_site8720],11.2 ± 0.62
18,ATTATTATGTAGAAGGTGCTATGTTCTATAAATATA [GTGCAC_site9545],9.895 ± 0.021
19,CGAGCAAGACGGGGTGCACACAAACTAATATGCCGA [CACACA_site7936],10.6 ± 0.64
20,GTTGTGGAAAGAAGTTGTACATAAAATATTATATAA [XGTACX_site4352],11.3 ± 0.79
21,AAAAAAAAAAAAATGTGGACACAATTGTGTGTTTGT [XGTACX_site3563],11.2 ± 0.63
22,TTTTTGTTAAAATAAATATTATAAATATATTAATAT [TGCATGCA_negctrl_site239],9.71 ± 0.2

row,Sequence,gcPBM binding intensity (ln)
1,TACATATTTTATAGCACACAAATAATAATATGTAGT [CACACA_site688],10.12 ± 0.035
2,AGGCCTTTTAGTATTTCACACACGTAAATGCGTATA [CACACA_site1108],10.05 ± 0.028
3,TATTATGTCTAAAATAACATATTAATATATTATTTC [CACACA_negctrl_site285],9.77 ± 0.11
4,TTAATATTTTATTTCACACACATAAATGCCCCAAAC [CACACA_site1887],10.6 ± 0.46
5,AGAGTTCTCCTATGCACACAAAAAACTTTCATTTAT [CACACA_site4193],10.2 ± 0.14
6,TTATTCATAAAAACAAAAAACAAAAATGAAATAGGA [CACACA_negctrl_site1123],9.98 ± 0.057
7,TATGATATAATATACACACATACATATATATATATA [CACACA_site510],10 ± 0.16
8,ACAAAATTGAAATTCACACAAAAACTATACTTTTTA [CACACA_site4638],9.73 ± 0.11
9,ATATCTACTTTTTTATGTACGAAAAAAATACGGATT [XGTACX_site8937],11.2 ± 0.69
10,CATCATATAAATTCAAGTACAAGAAAAAGTAATATA [XGTACX_site2383],11.1 ± 0.59
11,AAATAATTTTTATTTGTACACACATACATATATATT [CACACA_site8240],11.2 ± 0.73
12,TAAATAAAGATATATACACACATATTTATATTTATA [CACACA_site6431],9.655 ± 0.007
13,TATATATATATTAATAGTACATATTATGTAAGCCTA [XGTACX_site2826],10.9 ± 0.61
14,TTTTTTTTTTTTTTTGTGCACAATATAATTTTTAAT [GTGCAC_site9747],10.3 ± 0.56
15,TACGGATATATATATTGTACATATATATAATATATA [XGTACX_site3156],10.9 ± 0.52
16,AAAAAATACATACATACACACATATATATATATATA [CACACA_site913],10.2 ± 0.4
17,TCCTCTTATAATTCGTGTCCACATATATCATACAAT [XGTACX_site1523],11.1 ± 0.64
18,ATAAAACAAATGAGTACACACACATAAAAATTGAAA [CACACA_site7949],11.6 ± 1.2
19,GAAAATTCTTAAGGCACACACATATAAGATATATAC [CACACA_site6410],10.24 ± 0.071
20,TTATAATATATATCTGCATGTTGCTTTGGGGCTTTA [TGCATGCA_site712],9.84 ± 0.14
21,TATATTAAACAATATACACACATTAATGTAGACATA [CACACA_site8889],10.1 ± 0.16
22,TTTCAGACAAAAAAAAAAAAAAAAAAGAGGAGAATA [CACACA_negctrl_site254],9.495 ± 0.035
